Laboratory results: PMC4336329 (PLoS ONE, 2015)
Among all 310,000 compounds or so, about 2,200 (0.71%) showed an effect of 50% or more. Effects have a minus sign here. This is one part of the list.

The compounds below were run against human ether-à-go-go-related gene (hERG) potassium channel (human, UniProt Q12809) (assay: primary screen, population patch clamp on CHO cells stably expressing hERG).
Chain of human ether-à-go-go-related gene (hERG) potassium channel (Q12809 whole entry, looked up): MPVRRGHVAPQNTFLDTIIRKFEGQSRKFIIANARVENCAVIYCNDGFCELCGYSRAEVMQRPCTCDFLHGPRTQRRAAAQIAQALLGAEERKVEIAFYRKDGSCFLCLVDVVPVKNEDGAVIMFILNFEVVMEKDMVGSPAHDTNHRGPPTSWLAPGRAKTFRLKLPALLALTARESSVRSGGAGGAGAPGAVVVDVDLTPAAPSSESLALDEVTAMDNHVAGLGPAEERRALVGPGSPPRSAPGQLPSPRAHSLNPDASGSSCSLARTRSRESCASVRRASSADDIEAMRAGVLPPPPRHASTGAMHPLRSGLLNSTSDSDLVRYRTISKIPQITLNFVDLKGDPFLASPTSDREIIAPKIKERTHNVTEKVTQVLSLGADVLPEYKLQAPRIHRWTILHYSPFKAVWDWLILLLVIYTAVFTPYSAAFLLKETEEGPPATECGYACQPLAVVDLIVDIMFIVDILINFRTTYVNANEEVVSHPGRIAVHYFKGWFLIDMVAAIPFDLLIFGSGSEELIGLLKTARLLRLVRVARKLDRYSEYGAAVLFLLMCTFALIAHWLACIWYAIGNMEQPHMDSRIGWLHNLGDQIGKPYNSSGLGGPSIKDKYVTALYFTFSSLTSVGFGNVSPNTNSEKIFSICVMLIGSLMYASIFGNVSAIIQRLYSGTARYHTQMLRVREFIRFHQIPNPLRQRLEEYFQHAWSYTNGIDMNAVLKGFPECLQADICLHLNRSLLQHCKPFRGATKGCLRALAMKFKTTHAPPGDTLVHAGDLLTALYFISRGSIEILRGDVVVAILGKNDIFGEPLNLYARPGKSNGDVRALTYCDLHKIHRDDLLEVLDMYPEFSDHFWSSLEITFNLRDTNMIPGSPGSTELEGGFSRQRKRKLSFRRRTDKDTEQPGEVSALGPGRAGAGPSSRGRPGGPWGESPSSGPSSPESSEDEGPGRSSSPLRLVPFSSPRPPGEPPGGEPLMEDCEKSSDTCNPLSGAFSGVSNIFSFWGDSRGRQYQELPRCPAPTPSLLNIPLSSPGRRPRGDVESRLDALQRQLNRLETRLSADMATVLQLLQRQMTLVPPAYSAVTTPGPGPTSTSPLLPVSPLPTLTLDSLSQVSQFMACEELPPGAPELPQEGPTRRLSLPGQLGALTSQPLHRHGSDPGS

SMILES	hERG current change (%, negative = inhibition) at 1uM
O=C(NCCc1nnc2ccc(NCc3ccc(F)cc3)nn12)c1ccccc1	6.07%
CC(C)c1ccc(NC(=S)Nc2ccc(OC(F)(F)F)cc2)cc1.Cl	14.7%
Cc1oc2cc3oc(=O)c(CCC(=O)NCCCC(=O)O)c(C)c3cc2c1C	11.3%
COc1ccc(CC2S/C(=N/N=C/c3ccc(O)cc3)NC2=O)cc1 (stereo not drawn)	8.21%
O=C(NC1CC2CCCC(C1)N2C(=O)Nc1ccccc1)C1CC1 (stereo not drawn)	7.37%
C=CCn1c(Cc2ccccc2)n[nH]c1=S	3.56%
N#CCC(=O)N/N=C/c1ccccc1Cl	8.87%
Cc1cc(C)nc(SCc2nnc(SCC(=O)Nc3ccc(C)c(C)c3)o2)n1	11.7%
CN(C)c1ccc(N=Cc2nc(-c3ccccc3)oc2O)cc1	7.01%
Nc1c(Cl)ncnc1N/N=C/c1ccnc2ccccc12	9.3%
Cc1ccc(S(=O)(=O)N(Cc2ccc(Cl)cc2)c2ccccc2C(=O)O)cc1	11.3%
Cn1cccc1CC(=O)N/N=C/C(Cl)=C/c1ccccc1	9.15%
CCOC(=O)C1=C(c2ccc(O)cc2)NC(=O)NC1C (stereo not drawn)	16.1%
CSCCC(NC(=O)c1ccccc1Br)C(=O)N1CCCCCCC1 (stereo not drawn)	6.99%
O=C(Nc1ccccc1NC(=O)c1ccc(F)cc1)c1ccc(F)cc1	12.9%
CC1CCN(S(=O)(=O)c2ccc(C(=O)OC(C)C(=O)N(C)C3CCCCC3)cc2)CC1 (stereo not drawn)	5.25%
CCC(C)NS(=O)(=O)c1ccc(OCC(=O)NCc2ccco2)cc1 (stereo not drawn)	2.45%
COc1cccc(Cn2cnc3c([N+](=O)[O-])c(C)c(C)cc32)c1	3.16%
COc1ccc(SCCN2CC[C@@H](O)CCC2=O)cc1	15.8%
COc1ccc(-c2ccc(CCC(=O)O)n2NC(N)=O)cc1	11.5%
Cc1ccc(-c2cn(S(=O)(=O)c3cccc4nsnc34)nc2N)cc1	14.1%
COCCn1c(C)cc(C(=O)CSc2nnc(C)s2)c1C	10.8%
COc1ccc(C2C3=C(NCCN=C3c3ccccc3)C(=O)N2c2ccccc2)c(OC)c1 (stereo not drawn)	1.89%

SMILES	hERG current change (%, negative = inhibition) at 1uM
Cc1cccc(C)c1NC(=O)N1CCCC1C(=O)Nc1ccc(-n2cnnn2)cc1 (stereo not drawn)	-12.5%
C=CCNC(=O)CC(=O)N/N=C/c1ccc(C(=O)OC)cc1	7.21%
COc1cc(NS(=O)(=O)c2ccc(NC(=S)Nc3ccccc3)cc2)nc(OC)n1	4.66%
N#Cc1nnn(Cc2ccccc2)c1N	11.5%
CCC1CCC(C(=O)NC(C(=O)NCCCN2CCCCC2C)C(C)C)CC1 (stereo not drawn)	7.64%
Cc1ccnc(N2CCN(C(=O)CSc3nc4ccccc4nc3N3CCCCC3)CC2)c1	-6.99%
COc1ccc(CC(=O)Oc2ccc(C)cc2Br)cc1OC	10.5%
O=C1C2C(C(=O)N1Cc1cccnc1)C1C=CC2C12CC2 (stereo not drawn)	8.2%
CCCOc1ccc(-c2nc(C#N)c(NCCCn3ccnc3)o2)cc1	0.514%
O=C(NCc1ccc(Cl)cc1Cl)C(=O)N1CCCCC1	7%
COc1ccc(C2=NS(=O)(=O)N(C)C(C(=O)Nc3ccc(OC)c(OC)c3)=C2)cc1	-0.291%
COc1ccc(/C=N/S(=O)(=O)c2ccccc2)cc1OC	19.9%
O=C(O)c1cccc(S(=O)(=O)Nc2ccc3[nH]c(=O)[nH]c3c2)c1	6.32%
CCNC(=O)c1cc(S(=O)(=O)N2CCSCC2)ccc1OC	19.3%
Nc1nc(NC(=O)/C=C\C(=O)O)nn1-c1ccccc1	21.4%
COc1cc(C(=O)NCCc2ccc3c(c2)OCCO3)ccc1OCC(=O)N1CCOCC1	-10.5%
O=C(C1CC(=O)N(C2CCCC2)C1)N1CCN(c2ccccc2)CC1 (stereo not drawn)	14.7%
c1ccc(N2CCN(c3ncnc4scc(-c5cccs5)c34)CC2)cc1	6.78%
CCn1c(SCC(=O)NC2CC2)nnc1-c1ccccn1	6.93%
COC(=O)c1ccc2nc(NC(=O)CCS(=O)(=O)c3ccccc3)sc2c1	2.32%
Cc1ccccc1Nc1nc(N)nc(COC(=O)[C@@H](NC(=O)c2c(F)cccc2F)C(C)C)n1	3.7%
Cc1cc(NC(=O)C2CCCCC2)n(-c2nc3ccccc3[nH]2)n1	15.1%
O=C(O)c1ccc(N/N=C/c2cccc3cccnc23)cc1	0.832%

SMILES	hERG current change (%, negative = inhibition) at 1uM
Cn1ncc(Br)c1NC(=O)c1ccco1	21.3%
Cc1c(C(=O)NCc2ccccc2CN2CCCC2)oc2ccc(F)cc12	-57.4%
CC(C)n1nnnc1CN1CCN(C)CC1.Cl	3.2%
COc1ccc(N2CCN(CCNC(=O)c3ccc(NC(=O)C4CCCO4)cc3)CC2)cc1 (stereo not drawn)	11%
COc1cccc(/C=N/NC(=O)c2nc(-c3ccccc3)cc(-c3ccccc3)n2)c1	1.15%
CCOc1cc(-c2noc(CCC(=O)Nc3cccnc3)n2)ccc1OC	14.1%
CCOC(=O)c1ccc(NC(=O)CCC(CC)C(=O)O)cc1 (stereo not drawn)	9.56%
CCc1ccc(-c2cc(C)no2)cc1S(=O)(=O)Nc1ccc(C)cn1	7.95%
CC1CCc2nc(NC(=O)CSc3nc4ccccc4o3)sc2C1 (stereo not drawn)	11.9%
Nc1nnc(CSCc2ccc(F)cc2)s1	4.93%
O=C1Nc2cc(C(=O)N3CCN(c4ccccc4F)CC3)ccc2NC1CSCc1ccccc1F (stereo not drawn)	16%
CCOC(=O)c1c(-n2c(C)cc(/C=C3\C(=O)NC(=O)N(C)C3=O)c2C)sc2c1CCCC2	13.4%
CC(=O)c1sc(NC(=O)c2c(F)cccc2F)nc1-c1ccccc1	-1.47%
CCN(CC)CCNC(=O)CCc1c(C)nc2c(c(C)nn2-c2ccc(C)c(C)c2)c1C	-5.53%
NC(=O)c1c(NC(=O)c2ccc(S(=O)(=O)N(CCCl)CCCl)cc2)sc2c1CCCCC2	11.9%
O=C(Cn1c(=O)oc2cc(S(=O)(=O)N3CCCC3)ccc21)Nc1ccccc1Br	10.7%
COc1ccc(/C=N/c2nc3ccccc3n2C)cc1OC	2.4%
CCOC(=O)c1[nH]c(CN2CCN(c3ccc(OC)cc3)CC2)c(C(=O)OCC)c1C	5.02%
COC(=O)c1sccc1NC(=O)c1cccc(OC)c1	13.8%
O=C(COc1ccc(S(=O)(=O)N2CCCC2)cc1Cl)NC1CC1	0.0948%
CN(CC(=O)Nc1ccc(F)c(F)c1F)C(=O)C1CCCO1 (stereo not drawn)	8.71%
O=C(CSc1nnnn1C1CCCC1)N1CCOCC1	19%
O=C(Nc1ccc(F)cc1)Nc1cccnc1Cl	7.39%

SMILES	hERG current change (%, negative = inhibition) at 1uM
CCN(CC)S(=O)(=O)c1ccc(C(=O)NCCc2cc3c(OC)ccc(OC)c3[nH]c2=O)cc1	-9.11%
CN1CCN(c2ccc(NC(=O)COc3ccccc3[N+](=O)[O-])cc2)CC1	8.45%
CCOc1ccccc1-n1c(COc2ccccc2)nnc1SCC(N)=O	8.48%
Cn1nnnc1SCc1ccc(C(=O)Nc2nccs2)cc1	-0.552%
Cc1cccc(C)c1NC(=O)CSC(=O)c1sc2ccccc2c1Cl	20.1%
Cc1ccc(NC(=O)NNc2cccc(Cl)n2)cc1	-6.33%
CCCCCC(=O)N/N=C(\C)c1ccccn1	-1.57%
CN(CCCC1CCCC1)C(=O)c1cc(COc2c(F)cccc2F)on1	0.357%
COc1ccc(CNC(=O)Cn2nc(C)c3c(C)n(-c4ccc(C)cc4)nc3c2=O)cc1OC	15.7%
CCC(=O)N1CCN(c2ccccc2NC(=S)NC(=O)c2cccc([N+](=O)[O-])c2)CC1	-33.5%
Cc1cc(C)c2c(=O)[nH]c(SCc3ccccc3)nc2n1	3.77%
CCOc1ccc2oc(-c3ccccc3)c(C(=O)O)c2c1	9.3%
COc1ccc(NC(=S)NCc2ccc3c(c2)OCO3)cc1	15.5%
CCOc1ccc(S(=O)(=O)Nc2cccc(C(=O)N(C)Cc3cccc(OC)c3OC)c2)cc1	-11.9%
Cc1cc(C(F)(F)F)nc(SCc2ccc(C(=O)O)o2)n1	-2.85%
Cc1oc(-c2ccccc2F)nc1CSCC(=O)NC1CC1	7.06%
CC1(/[N+]([O-])=C/c2ccc(Cl)cc2Cl)CCCCC1=O (stereo not drawn)	10.5%
CC(=O)C(C(C)=O)C(c1ccccc1)c1nc2ccccc2[nH]c1=O (stereo not drawn)	9.57%
CC[n+]1c(/C=C2/C=C(C)CC(C)C2)sc2ccccc21.[I-] (stereo not drawn)	12.9%
O=C(Nc1cc(Cl)ccc1-n1cncn1)C1CC1	5.31%
O=C(O)Cn1cc(CN2CCOCC2)c2ccccc21	12.5%
